Data taken from the supplement of paper PMC3334620.
Over roughly 33,000 sequences, “E-score (-0.5 to 0.5)” has its median near -0.036; the highest 2% begin near 0.37. Some of the results follow.

Each sequence was assayed against T1, Yer064c (UniProt P40041) (assay: PBM E-score (8-mer binding enrichment) (E-score (-0.5 to 0.5)); higher = stronger / more preferred TF binding; most listed sequences are background and not binding sites). Details: protein concentration: 200 nM; construct: GST-full length.
T1 sequence: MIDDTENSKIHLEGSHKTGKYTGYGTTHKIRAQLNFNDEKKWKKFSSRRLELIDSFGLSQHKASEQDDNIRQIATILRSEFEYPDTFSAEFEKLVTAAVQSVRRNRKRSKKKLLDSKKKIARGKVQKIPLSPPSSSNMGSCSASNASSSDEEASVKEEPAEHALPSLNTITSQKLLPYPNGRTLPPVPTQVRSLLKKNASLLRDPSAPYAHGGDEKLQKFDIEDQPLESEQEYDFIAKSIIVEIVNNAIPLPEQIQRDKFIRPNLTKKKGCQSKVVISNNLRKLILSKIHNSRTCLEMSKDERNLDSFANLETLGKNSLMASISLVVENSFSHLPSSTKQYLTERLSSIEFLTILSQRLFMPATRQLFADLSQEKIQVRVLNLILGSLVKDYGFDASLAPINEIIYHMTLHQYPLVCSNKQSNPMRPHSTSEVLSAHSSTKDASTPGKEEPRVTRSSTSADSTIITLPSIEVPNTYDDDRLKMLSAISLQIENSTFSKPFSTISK
Method in brief: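 GST-tagged yeast TFs (full-length or DNA-binding domain) were made by PURExpress in vitro transcription/translation and applied at about 100-200 nM to universal all-10-mer Agilent arrays. The arrays were made double-stranded by primer extension, on fresh or once-stripped slides. Bound protein was detected with fluorescent anti-GST, and scans were normalised with masliner. Each ungapped eight-base word, pooled with its reverse complement, received an E-score (modified Wilcoxon-Mann-Whitney statistic) from the Universal PBM Analysis Suite.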

| Sequence | PBM E-score |
| --- | --- |
| AGGGAAGA | -0.0141 |
| ACTGCGCG | -0.0678 |
| AAATACTG | -0.00209 |
| CACGGAGG | -0.181 |
| CAAGTATA | -0.181 |
| CATACGGG | -0.0506 |
| AGTAATGC | -0.077 |
| AACCGAGA | -0.0746 |
| ATTCGTAG | 0.11 |
| CTAGCGGA | -0.0703 |
| GTAAACCA | -0.152 |
| CACGCGGG | 0.0291 |
| CGAGGCTC | -0.301 |
| CTCCCCAC | -0.11 |
| TCGACAAA | 0.0412 |
| GCTAGCCC | -0.323 |
| ATTTTCAG | -0.135 |
| GGTAAGAA | 0.0525 |
| ATCCTCTA | -0.16 |
| ATGGCTAG | 0.181 |
| CATGATGC | 0.0125 |
| AACGTCGG | -0.153 |

| Sequence | PBM E-score |
| --- | --- |
| ATAGCTTA | 0.0576 |
| CGTGTGCC | -0.285 |
| GCAGCCCC | -0.358 |
| ATGGCGCG | -0.291 |
| AGGAGACC | -0.0781 |
| CCGTGCGC | -0.102 |
| GGATATTA | 0.0521 |
| ACCTTACG | -0.0139 |
| CAACTCAG | 0.0495 |
| AGATGCAT | -0.0321 |
| ACCAATAA | 0.0479 |
| CTGCGTAA | 0.183 |
| CACCCAAA | -0.0523 |
| CTTTTGCA | 0.0461 |
| AAATTCAG | -0.0847 |
| CCATAGGA | -0.0198 |
| TCCAGGAA | -0.0363 |
| ATCCAGAG | 0.0498 |
| AGTCAGCG | 0.453 |
| GAACCACC | 0.121 |
| GTGCAAAA | 0.0677 |
| CTTGACGC | -0.268 |

| Sequence | PBM E-score |
| --- | --- |
| TCGCAAGA | 0.0289 |
| TCCCCTAA | -0.228 |
| ACTGCTGC | 0.00729 |
| GTCGGAGA | 0.168 |
| ACTTGCGG | 0.018 |
| ACCAGCTG | -0.0217 |
| AAGTCAGG | 0.341 |
| TACGTACA | -0.123 |
| CGCTAGGC | -0.113 |
| GGCCCCAA | -0.357 |
| CATATCAA | 0.0822 |
| CAGGTATA | -0.0622 |
| AAGATAGA | -0.0142 |
| AACGCTGG | -0.188 |
| ACGTATTC | -0.0455 |
| AGCCGAAT | 0.0167 |
| GCTTCGCC | -0.273 |
| CCTTATCG | 0.0971 |
| AGGTACGC | -0.191 |
| CCAGACCC | -0.221 |
| ACCAGATG | 0.0404 |
| CAGATTCG | 0.0206 |

| Sequence | PBM E-score |
| --- | --- |
| GGTGACAC | -0.0978 |
| AGGCGCCA | -0.102 |
| CGGGCCCC | -0.359 |
| CCGAGGGA | -0.196 |
| GGGACTCA | 0.405 |
| TCGCACGA | 0.0317 |
| CCTGCTCC | -0.19 |
| AATCATGA | 0.43 |
| AATAAAAG | -0.0798 |
| CCAAGTCA | 0.317 |
| TCAAGACA | -0.0364 |
| AGTTTGGC | -0.228 |
| AAAAACTT | -0.0194 |
| CAGCGGGC | 0.0753 |
| CAAACAGG | -0.192 |
| CAGCTCCA | -0.117 |
| AATACAAG | -0.00695 |
| CCGCCCCC | -0.312 |
| CTCGAAAC | -0.00574 |
| AAGCAAAA | 0.0418 |
